Laboratory results as given in PubChem BioAssay AID504333 (National Center for Advancing Translational Sciences (NCATS), 2011).
Hit rate of the full screen: of about 360,000 compounds, about 16,000 (4.4%) were called active. Inconclusive results, whose numbers are uncertain, are shown with a selection of clear calls. Calls follow the shape of the dose curve; as a rule, active = well fitted inhibition curve with a large enough effect; inconclusive = small, poorly fitted or top-dose-only effect; inactive = no such curve, though single readings can be large or run the other way. A potency beside an inconclusive call is a rough fit, not a confirmed value.

Molecular target: Bromodomain adjacent to zinc finger domain protein 2B (Homo sapiens) (UniProt Q9UIF8)
Test: qHTS Assay for Inhibitors of BAZ2B; also: nearly all actives have a fitted effect of over 60% in size
Details: AlphaScreen BAZ2B-H3K14Ac peptide displacement; activity change, negative = inhibition: at 114 µM (top of the series)
In short: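 AlphaScreen displacement: compounds (up to 110uM) incubated 30 min at room temperature with a preformed 50 nM BAZ2B/50 nM biotinylated H3K14Ac peptide complex in PBS pH 7.4 with Tween-20. Donor and acceptor beads at 10 ug/mL final added, 20 min light-protected before reading.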
% is scaled to controls: 0 for no effect and ±100 for the full control effect; potency is read from the fitted curve at half-maximal effect; tags tell the direction and shape of the fitted curve.

UniProt Q9UIF8, sequence (Q9UIF8 whole entry, looked up, the tested form may be a part): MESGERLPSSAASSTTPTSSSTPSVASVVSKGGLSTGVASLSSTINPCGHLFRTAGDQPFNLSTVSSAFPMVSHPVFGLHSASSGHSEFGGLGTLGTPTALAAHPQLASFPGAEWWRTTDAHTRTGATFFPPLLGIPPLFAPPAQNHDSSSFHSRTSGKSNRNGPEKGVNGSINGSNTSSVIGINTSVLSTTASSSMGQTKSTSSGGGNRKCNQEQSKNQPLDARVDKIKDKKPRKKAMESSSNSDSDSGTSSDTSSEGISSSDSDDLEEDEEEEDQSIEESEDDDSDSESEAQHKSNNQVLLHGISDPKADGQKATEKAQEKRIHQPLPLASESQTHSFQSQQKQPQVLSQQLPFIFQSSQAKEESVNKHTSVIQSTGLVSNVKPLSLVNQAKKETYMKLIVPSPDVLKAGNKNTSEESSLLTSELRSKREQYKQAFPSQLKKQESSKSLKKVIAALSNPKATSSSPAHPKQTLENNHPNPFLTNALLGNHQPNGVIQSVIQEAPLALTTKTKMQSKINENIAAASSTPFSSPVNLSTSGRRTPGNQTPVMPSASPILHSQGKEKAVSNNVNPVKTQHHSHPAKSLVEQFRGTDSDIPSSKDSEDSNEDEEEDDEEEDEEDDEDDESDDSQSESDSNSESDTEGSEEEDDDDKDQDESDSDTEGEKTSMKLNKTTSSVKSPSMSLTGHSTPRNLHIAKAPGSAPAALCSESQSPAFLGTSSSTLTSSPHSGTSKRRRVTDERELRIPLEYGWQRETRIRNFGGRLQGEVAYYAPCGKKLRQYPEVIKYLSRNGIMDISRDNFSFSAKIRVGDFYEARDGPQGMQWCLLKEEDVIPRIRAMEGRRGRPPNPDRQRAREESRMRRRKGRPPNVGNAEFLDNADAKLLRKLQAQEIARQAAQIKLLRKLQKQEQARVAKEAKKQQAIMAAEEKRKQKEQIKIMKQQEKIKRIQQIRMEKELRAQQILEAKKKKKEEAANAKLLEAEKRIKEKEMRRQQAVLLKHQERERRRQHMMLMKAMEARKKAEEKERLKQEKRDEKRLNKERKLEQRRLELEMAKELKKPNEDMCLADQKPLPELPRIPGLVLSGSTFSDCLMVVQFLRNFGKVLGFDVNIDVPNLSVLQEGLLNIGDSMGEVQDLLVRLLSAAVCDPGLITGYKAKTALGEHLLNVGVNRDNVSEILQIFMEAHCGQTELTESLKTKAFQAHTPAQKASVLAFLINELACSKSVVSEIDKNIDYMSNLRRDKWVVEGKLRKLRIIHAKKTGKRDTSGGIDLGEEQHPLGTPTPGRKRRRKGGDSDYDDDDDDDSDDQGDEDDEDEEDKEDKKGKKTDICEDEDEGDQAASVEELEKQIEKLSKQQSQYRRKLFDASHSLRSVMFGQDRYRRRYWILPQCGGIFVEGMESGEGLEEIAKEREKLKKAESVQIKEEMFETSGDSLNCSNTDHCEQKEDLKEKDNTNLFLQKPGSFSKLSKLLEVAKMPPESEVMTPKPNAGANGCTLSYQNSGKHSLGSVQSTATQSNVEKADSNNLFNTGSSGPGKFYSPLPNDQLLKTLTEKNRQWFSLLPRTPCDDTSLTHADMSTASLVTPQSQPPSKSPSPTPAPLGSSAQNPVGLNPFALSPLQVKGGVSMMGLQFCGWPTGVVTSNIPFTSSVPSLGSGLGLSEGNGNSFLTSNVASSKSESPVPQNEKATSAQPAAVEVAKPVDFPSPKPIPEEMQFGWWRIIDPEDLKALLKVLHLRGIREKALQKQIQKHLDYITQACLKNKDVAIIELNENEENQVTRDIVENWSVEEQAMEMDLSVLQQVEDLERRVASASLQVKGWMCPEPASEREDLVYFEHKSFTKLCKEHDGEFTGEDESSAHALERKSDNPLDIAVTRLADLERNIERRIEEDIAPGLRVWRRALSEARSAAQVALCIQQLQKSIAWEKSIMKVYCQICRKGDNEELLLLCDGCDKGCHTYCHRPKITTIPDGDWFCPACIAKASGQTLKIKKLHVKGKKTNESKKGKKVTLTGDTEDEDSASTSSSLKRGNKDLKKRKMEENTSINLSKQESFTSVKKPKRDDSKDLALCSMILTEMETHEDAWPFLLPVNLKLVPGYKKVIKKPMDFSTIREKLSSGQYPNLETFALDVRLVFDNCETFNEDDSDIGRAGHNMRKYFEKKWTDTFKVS

Row | SMILES | activity change, negative = inhibition | Potency
1 | O=C(COc1ccc([N+](=O)[O-])cc1)N/N=C/c1ccccn1 | inactive: -2.54% [at 57.1 µM] | –
2 | CCOc1ccc(C2=Cc3cc(OC)c(OC)cc3C(=C(Cl)Cl)O2)cc1 | – | inconclusive: 89.1 µM [inhibitor, single point]
3 | CC1=C(C(=O)N2CCN(c3ccccc3)CC2)C2(CCCCC2)OC1=O | inactive: -16.6% | –
4 | O=C(OCc1ccc(Cl)c(Cl)c1)c1ccc[nH]1 | inactive: -7.15% | –
5 | O=C(Cn1cncn1)N/N=C/c1ccncc1 | inactive: -9.3% | –
6 | COc1ccc2c(c1)[C@@H]1[C@H](CO2)[C@H](c2ccccc2)[C@]2(C)C(=O)Nc3ccc(C)cc3C(=O)N12 | – | inconclusive: 44.7 µM [inhibitor, partial curve]
7 | O=C(O)CCc1ccc(-c2cccs2)n1CCC(=O)O | – | inconclusive: 79.4 µM [inhibitor, single point]
8 | O=C(NCCC1=CCCCC1)C1CCN(S(=O)(=O)c2cccc3nonc23)CC1 | – | inconclusive: 8.91 µM [inhibitor, single point]
9 | COc1cc(OC)c2c(-c3ccccc3)cc(=O)oc2c1C(CC(=O)N1CCN(c2ccccc2)CC1)c1ccc2c(c1)OCO2 (stereo unspecified) | – | inconclusive: 50.1 µM [inhibitor, partial curve, poor fit]
10 | CCOC(=O)C1CCN(C/C=C/c2ccccc2)CC1 | – | inconclusive: 89.1 µM [inhibitor, single point]
11 | CCc1ccc(NC(=O)CSC2=C(C#N)C(c3ccco3)C3=C(CCCC3=O)N2)cc1 (stereo unspecified) | – | inconclusive: 79.4 µM [inhibitor, single point]
12 | COc1ccc(-c2cc(C(F)(F)F)c3c(n2)sc2c(O)cc(=O)[nH]c23)c(OC)c1 | – | inconclusive: 50.1 µM [inhibitor, partial curve]
13 | CCN1C(=O)/C(=C2\SC(=S)N(CCCOC)C2=O)c2ccccc21 | – | inconclusive: 0.631 µM [inhibitor, full curve, poor fit]
14 | O=C(CN1CCCCCC1)N/N=C/c1ccc(Cl)c(Cl)c1 | – | active: 50.1 µM
15 | Cc1ccc(NC(=O)Cn2cc(S(=O)(=O)Cc3ccc(F)cc3)c3ccccc32)cc1Cl | – | active: 50.1 µM
16 | O=C1C(=O)N(CC2CCCO2)C(c2ccccc2[N+](=O)[O-])/C1=C(/O)c1ccccc1 (stereo unspecified) | – | inconclusive: 89.1 µM [inhibitor, single point]
17 | Cc1cccc(-n2nnnc2SCC(=O)Nc2ccc(N3CCN(C)CC3)cc2)c1 | – | inconclusive: 50.1 µM [inhibitor, partial curve]
18 | O=C(CNCc1ccco1)Nc1cc(S(=O)(=O)N2CCOCC2)ccc1N1CCCC1 | – | active: 50.1 µM
19 | O=C(Nc1ccccc1)Nc1nccs1 | – | inconclusive: 89.1 µM [inhibitor, single point]
20 | O=C(COC(=O)/C=C/c1ccc(Cl)cc1)NC1CCCCCC1 | – | inconclusive: 1.26 µM [inhibitor, full curve, poor fit]
21 | Cc1cccc(-n2cnc(C(=O)NNC(=S)Nc3ccccc3)c2)n1 | – | active: 22.4 µM
22 | CCN(CC)C(=O)c1ccc(NS(=O)(=O)c2ccc3[nH]c(=O)[nH]c3c2)cc1 | – | inconclusive: 79.4 µM [inhibitor, single point]
23 | Cc1c(-c2ccccc2)nc2c(Cl)cccc2c1C(=O)OCC(=O)c1ccc(F)cc1 | inactive: 2.31% | –
24 | Cc1ccc(/C=N/NC(=O)c2cccnc2)o1 | inactive: -18.2% | –

Row | SMILES | activity change, negative = inhibition | Potency
25 | O=C(O)c1ccc(Cl)c(S(=O)(=O)NC(Cc2ccccc2)C(=O)O)c1 (stereo unspecified) | – | inconclusive: 79.4 µM [inhibitor, single point]
26 | c1ccc(-c2nc(NCCCn3ccnc3)c3oc4ccccc4c3n2)cc1 | – | active: 44.7 µM
27 | CN(c1ccccc1C(=O)O)S(=O)(=O)c1ccc2[nH]c(=O)oc2c1 | inactive: -0.0518% | –
28 | Cc1ccc(C)c(OCCC(=O)OCC(=O)N2CCN(c3ccccc3)CC2)c1 | – | inconclusive: 79.4 µM [inhibitor, single point]
29 | Cc1cc(=O)oc2cc(Oc3ncccc3[N+](=O)[O-])ccc12 | – | inconclusive: 89.1 µM [inhibitor, single point]
30 | N#Cc1nc(Cc2ccccc2)oc1NCCCn1ccnc1 | – | inconclusive: 89.1 µM [inhibitor, single point]
31 | CCCC(c1nnnn1Cc1ccccc1)N1CCC(C(N)=O)CC1 (stereo unspecified) | – | inconclusive: 89.1 µM [inhibitor, single point]
32 | CN(C)c1ccc(C(CNS(=O)(=O)c2ccc(Cl)cc2)N2CCOCC2)cc1 (stereo unspecified) | – | active: 39.8 µM
33 | N#CCC(=O)N/N=C\c1cccc(OC/C=C/c2ccccc2)c1 | – | inconclusive: 89.1 µM [inhibitor, single point]
34 | Cc1cccc2cc(C3CC(c4cccs4)=NN3C(=O)CCC(=O)O)c(Cl)nc12 (stereo unspecified) | – | inconclusive: 89.1 µM [inhibitor, single point]
35 | CC1CCCC(C)N1C(=O)CN1CCN(c2nc(-c3ccc(F)cc3)cs2)CC1 (stereo unspecified) | – | active: 70.8 µM
36 | Cc1cc(C)c2c(CC(=O)Nc3ccccc3C(F)(F)F)coc2c1 | inactive: 3.23% | –
37 | C(=N\Nc1nc2ccccc2[nH]1)/c1c[nH]c2ccccc12 | – | active: 44.7 µM
38 | Cc1ccc(NC(=O)COC(=O)C2CSC3(C)CCC(=O)N23)c(C)c1 (stereo unspecified) | inactive: -3.68% | –
39 | CC1=NN(c2ccc(C(=O)O)c(N)c2)C(=O)C1 | – | active: 39.8 µM
40 | O=C(Cn1cnnn1)OCC(=O)c1ccc(Cl)s1 | – | inconclusive: 89.1 µM [inhibitor, single point]
41 | Nc1nc(-c2cccs2)c(-c2cccs2)s1 | – | inconclusive: 50.1 µM [inhibitor, partial curve]
42 | Cc1nnsc1-c1c(C(=O)O)c(C)nn1-c1ccc(OC(F)(F)F)cc1 | inactive: 0.12% | –
43 | Cc1cccc(N2CCN(C(=O)C3CCN(c4ncnc5c4nc4n5CCCCC4)CC3)CC2C)c1 (stereo unspecified) | – | active: 35.5 µM
44 | CC1CCCN(c2nc3c(c(=O)[nH]c(=O)n3C)n2Cc2ccccc2Cl)C1 (stereo unspecified) | – | inconclusive: 100 µM [inhibitor, single point]
45 | Cc1cc(Nc2ccccc2)nn1C(=O)c1ccc([N+](=O)[O-])cc1 | – | inconclusive: 35.5 µM [inhibitor, full curve]
46 | COc1cc(Nc2ncc3c(n2)CCN(Cc2cccc(C)c2)C3)cc(OC)c1 | – | inconclusive: 35.5 µM [inhibitor, partial curve]
47 | Cn1nnnc1SCCCNCc1cccc(OCc2ccc(F)cc2)c1 | inactive: -18.7% | –
48 | COc1cccc(NC(=O)C(OC(=O)c2ccc([N+](=O)[O-])o2)c2ccccc2)c1 (stereo unspecified) | – | inconclusive: 70.8 µM [inhibitor, single point]

Row | SMILES | activity change, negative = inhibition | Potency
49 | O=C(Oc1c(Br)cc([N+](=O)[O-])cc1Br)c1cccnc1 | – | inconclusive: 89.1 µM [inhibitor, single point]
50 | O=C(COC(=O)/C=C/c1ccccc1Cl)NCc1ccco1 | – | active: 50.1 µM
51 | C#CCOCCOCCOCCNc1nc(N2CCN(C(=O)[C@H](CCC(=O)O)n3cc(C(N)[C@H](C)CC)nn3)CC2)nc(N2CCN(C(=O)[C@H](CCC(=O)O)n3cc(C(N)[C@H](C)CC)nn3)CC2)n1 (stereo partly specified) | – | active: 79.4 µM
52 | CCc1cc(-c2[nH]ncc2-c2ccc([N+](=O)[O-])cc2)c(O)cc1OC | – | active: 39.8 µM
53 | O=C(c1ccccn1)N1CCN(S(=O)(=O)c2cccc(Br)c2)CC1 | inactive: 5.49% | –
54 | O=S(=O)(Cc1cc(Cl)nc(-c2cccnc2)n1)c1ccccc1 | inactive: 11% | –
55 | COc1ccc(CN(C)C(C)C(=O)Nc2ccc(S(=O)(=O)N3CCCCC3)cc2)cc1F (stereo unspecified) | inactive: 5.64% | –
56 | O=Nc1[nH]c(=O)c(/C=C(\O)c2ccccc2)nc1NO | – | inconclusive: 3.55 µM [inhibitor, full curve, poor fit]
57 | Cc1ccccc1NC1c2ccccc2C(=O)N1Cc1ccco1 (stereo unspecified) | – | inconclusive: 50.1 µM [inhibitor, partial curve]
58 | O=C(NCc1ccccc1)c1cc(=O)nc2sc(-c3ccccc3)nn12 | inactive: 10.7% | –
59 | CCOc1cc(-c2sc(Nc3ccc(CC)cc3)n[n+]2-c2ccccc2)ccc1OC | – | inconclusive: 44.7 µM [inhibitor, partial curve]
60 | CCCCNC(=O)c1ccc2c(c1)NC(=O)C(CS(=O)(=O)Cc1ccc(F)cc1Cl)N2 (stereo unspecified) | inactive: 4.19% [at 57.1 µM] | –
61 | CCS(=O)(=O)N1CCN(c2ccc(C(=O)NC34CC5CC(CC(C5)C3)C4)cc2[N+](=O)[O-])CC1 | inactive: -1.35% | –
62 | O=C1C(NS(=O)(=O)c2ccc(Cl)cc2)=C(N2CCCCC2)C(=O)c2ccccc21 | – | active: 5.62 µM
63 | C/C(=N/OC(=O)CC(C)C)c1cc(-c2ccc(Cl)cc2)no1 | – | inconclusive: 89.1 µM [inhibitor, single point]
64 | O=C(NNC(=O)c1ccc(-c2ccc([N+](=O)[O-])cc2)o1)c1ccncc1 | inactive: -34.3% | –
65 | CCOc1ccccc1-c1nc(C(N)=O)c2c(n1)n(-c1ccc3c(c1)OCO3)c(=O)n2C | inactive: 1.1% | –
66 | O=C(Nc1cccc2ccccc12)N1CC=C(c2ccccc2)CC1 | inactive: 1% | –
67 | O=C(O)C1CC=CCC1C(=O)Nc1ccc(N2CCN(Cc3ccccc3)CC2)cc1 (stereo unspecified) | – | inconclusive: 89.1 µM [inhibitor, single point]
68 | O=C(NCc1ccco1)c1ccc2c(c1)N(Cc1ccccc1F)C(=O)c1ccccc1S2(=O)=O | inactive: -12.2% | –
69 | CCN(CC(=O)NC(C)(C)C)Cc1cc(=O)n2c(-c3ccccc3)csc2n1 | – | inconclusive: 100 µM [inhibitor, single point]
70 | CC1CCCCN1S(=O)(=O)c1ccc(C(=O)N(CCCN(C)C)c2nc3ccc(Br)cc3s2)cc1 (stereo unspecified) | – | inconclusive: 35.5 µM [inhibitor, partial curve]
71 | C[C@H](NC(=O)c1ccc(C(C)(C)C)cc1)C(=O)N1CCC2(CC1)NCCc1[nH]cnc12 | – | inconclusive: 89.1 µM [inhibitor, single point]
